Measurements: PMC6919601, “Identification of Plasmodium dipeptidyl aminopeptidase allosteric inhibitors by high throughput screening” (PLoS ONE, 2019)
Hit rate of the full screen: of about 110,000 compounds, about 230 (0.21%) showed an effect of 50% or more. This is one part of the list.

These compounds were tested against DPAP1 (Plasmodium falciparum, UniProt Q8IIJ9) (assay: primary screen, percent inhibition; read by cleavage of a fluorogenic dipeptide substrate; higher = more effect of the substance).
Design: species or system P. falciparum D10 trophozoite lysates; single well
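Further: 30 min substrate incubation versus DMSO and 10 µM JCP410 controls.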

DPAP1, sequence (Q8IIJ9 whole entry, looked up): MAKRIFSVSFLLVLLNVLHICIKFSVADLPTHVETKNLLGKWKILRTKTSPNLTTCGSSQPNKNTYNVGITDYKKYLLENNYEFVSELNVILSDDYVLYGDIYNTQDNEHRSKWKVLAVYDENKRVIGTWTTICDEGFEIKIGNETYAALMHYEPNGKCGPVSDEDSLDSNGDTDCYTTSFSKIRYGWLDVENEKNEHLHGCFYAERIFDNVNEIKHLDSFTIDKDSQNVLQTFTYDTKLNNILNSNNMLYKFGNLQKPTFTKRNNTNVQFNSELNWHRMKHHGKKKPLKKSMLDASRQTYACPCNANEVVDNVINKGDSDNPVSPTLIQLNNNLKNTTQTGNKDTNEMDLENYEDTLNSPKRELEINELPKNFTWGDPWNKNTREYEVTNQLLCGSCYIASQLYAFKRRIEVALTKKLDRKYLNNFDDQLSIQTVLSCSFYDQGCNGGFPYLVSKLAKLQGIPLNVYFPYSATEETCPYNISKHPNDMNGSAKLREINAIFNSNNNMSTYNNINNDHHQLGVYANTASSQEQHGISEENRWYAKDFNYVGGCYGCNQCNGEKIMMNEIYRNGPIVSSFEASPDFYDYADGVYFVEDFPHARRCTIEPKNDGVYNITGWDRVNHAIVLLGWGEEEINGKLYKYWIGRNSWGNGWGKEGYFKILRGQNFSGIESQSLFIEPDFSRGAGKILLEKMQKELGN

Row | SMILES | % Inhibition @ 10 uM [%]
1 | COc1ccc2c(Cl)c(C(=O)Nc3ccc(C(N)=O)cc3)sc2c1 | 2.68
2 | COc1ccc(CNC(=O)Cn2ncn3c(cc4sccc43)c2=O)cc1 | -3.35
3 | COC(=O)c1ccc(/C=c2\sc3n(c2=O)C(N)=C(C#N)C(c2ccc(C(=O)OC)cc2)C=3C#N)cc1 (stereo not shown) | 8.06
4 | CC[C@H](NC(=O)[C@@H](NC(=O)c1ccc(-c2ccccc2Cl)c(Cl)c1)C1CCCCC1)C(=O)c1nnc(-c2ccccc2)o1 | -0.207
5 | CC12C=CC(C)(O1)C1C(=O)N(c3cccc(C(F)(F)F)c3)C(=O)C12 (stereo not shown) | -3.46
6 | COc1ccc(CN2CC(C(=O)N3CC(C)CC(C)C3)CC2=O)cc1 (stereo not shown) | -0.0542
7 | O=C(C1CC1)N1CCC(c2c[nH]c3ccccc23)(c2c[nH]c3ccccc23)CC1 | -2.37
8 | O=C(CC(c1ccccc1)c1ccccc1)N1CCc2ccccc2C1 | -8.7
9 | CCn1c2c(c3cc(Br)ccc31)CCC/C2=N\O | -0.446
10 | Nc1cc(NC(=O)C23CC4CC(CC(C4)C2)C3)cc(Oc2ccccc2)c1 | 3
11 | COc1ccc(OCC2c3cc(OC)c(OC)cc3CCN2C(=O)C(C)Oc2ccccc2)cc1 (stereo not shown) | 4.37
12 | CCOc1c(Cl)cc(/C=C2/SC(=O)N(CC)C2=O)cc1OC | 1.61
13 | CC(C)(C)c1ccc(S(=O)(=O)NCC(=O)Nc2sc3c(c2C(N)=O)CCCCC3)cc1 | 0.145
14 | CC1CCCCN1S(=O)(=O)c1ccc(C(=O)Nc2cccc(Br)c2)cc1 (stereo not shown) | -1.59
15 | Cc1ccc(NCC(O)CN2C(=O)c3ccccc3C2=O)cc1 (stereo not shown) | -0.992
16 | CC(C)N1C(=O)S/C(=C/c2ccc3c(c2)OCCO3)C1=O | 5.05
17 | CCOC(=O)c1cnc2nc(NCc3cccc(C)c3)nn2c1O | -6.28
18 | CC1CC2=C(CC1CN1CCN(C)CC1)C(C)(C)CCC2 (stereo not shown) | 3.76
19 | Cc1ccccc1Cn1c(C)c(CNCCc2ccccc2)c(C(=O)O)c1C | 1.41
20 | Cc1ccc(S(=O)(=O)N(CC(=O)N2CCOCC2)c2ccc(Cl)c(C(F)(F)F)c2)cc1 | -3.95
21 | CN(Cc1ccccc1)c1nc(-c2ccco2)cc(C(F)(F)F)n1 | 1.07
22 | CCN1C(=O)S/C(=C/c2cc(C)n(-c3ccc(S(N)(=O)=O)cc3)c2C)C1=O | 5.77
23 | O=C(OCCCc1nc2ccccc2[nH]1)c1cccc(F)c1 | -7.58
24 | Cc1cc(NC(=O)c2cc(-c3ccccc3O)on2)no1 | -7.15
25 | COc1ccc(C(=O)OCC(=O)n2c(C)c(C)c3ccccc32)cc1 | -3.33

Row | SMILES | % Inhibition @ 10 uM [%]
26 | Cc1cc(C)c2nc3s/c(=C\c4ccc(Cl)cc4)c(=O)n3c2c1 | 4.57
27 | COc1ccc(/C=C(\NC(=O)c2ccccc2)C(=O)Nc2ccc(F)cc2)cc1OC | -7.96
28 | COc1ccc(OC)c(C2CC(=O)NC(SCC(N)=O)=C2C#N)c1 (stereo not shown) | 4
29 | Cc1cccc(C2C3=C(CC(C)(C)CC3=O)N=C3c4ccccc4C(=O)C32)c1 (stereo not shown) | -3.63
30 | COc1cc2c(cc1OC)C(C(=O)NCc1ccccn1)C(c1cccnc1)N(C)C2=O (stereo not shown) | -0.503
31 | COc1ccc(C2CC(=O)NC3=C2C(=O)CCC3)c(OC)c1 (stereo not shown) | -9.42
32 | Cc1ccc(-n2nc3c(N4CCC(C(=O)N5CCC(C(N)=O)CC5)CC4)nnc(C)c3c2C)cc1 | 3.08
33 | COCCCNC(=O)/C(C#N)=C/C1=Cc2ccccc2OC1 | -1.33
34 | Cc1ccccc1C1CC(c2ccc(Cl)cc2OC(F)F)Nc2ncnn21 (stereo not shown) | 1.86
35 | COc1ccc(C2=NC(c3sccc3C)NC(c3ccccc3O)C2)cc1 (stereo not shown) | -0.72
36 | CC1(C)C(c2ccc(Cl)cc2)=[N+]([O-])C(C)(C)N1O | -3.41
37 | CCOc1cc(/C=C2\C(=N)N3N=C(S(=O)(=O)CC)SC3=NC2=O)ccc1O | -3.35
38 | CC1=NN(c2nc3ccccc3s2)C(=O)C1CCC(C)C (stereo not shown) | -3.33
39 | COCCN1C(=O)c2ccccc2C(C(=O)Nc2cc(C)ccn2)C1c1c[nH]c2ccccc12 (stereo not shown) | -3.41
40 | CC(C)C(NS(=O)(=O)c1cccc2nsnc12)C(=O)Nc1ncc(Br)s1 (stereo not shown) | -0.465
41 | Brc1ccc(OCCN2CCCCC2)cc1 | 3.05
42 | CCOC(=O)c1[nH]c2ccc(OC)cc2c1NC(=S)N1CCC(N2CCCCC2)CC1 | 1.68
43 | O=C(O)C1CSC2(CCC(c3ccccc3)CC2)N1 (stereo not shown) | -12.6
44 | Cc1ccc(CN(C(=O)c2ccc(C(C)(C)C)cc2)C2CCS(=O)(=O)C2)o1 (stereo not shown) | -1.32
45 | CN(Cc1ccccc1)C(=O)c1ccc(Cl)cc1Cl | -3.82
46 | COc1cc(OC)c(OC)cc1C=C(C#N)C#N | 0.0345
47 | O=C(NCc1ccc2c(c1)OCO2)c1cc(-c2ccc(Cl)s2)nc2ccccc12 | -4.86
48 | CCc1ccc(-c2cn3nc(N4CCC(C(=O)NC5CCCC5)CC4)sc3n2)cc1 | -1.6
49 | Cc1ccccc1/C=c1/sc2n(c1=O)C(N)=C(C#N)C(c1ccccc1C)C=2C#N (stereo not shown) | -1.68
